Measured values published in publication PMC10726135.
This is one part of the list. At the low end of the ranking, values are background and their order means little. Measured with an extract: partners may take part in the binding.

The sequences below were run against T1, HNF4alpha8 (COS-7 nuclear extract) (UniProt P41235-5) (assay: protein-binding microarray). Conditions: COS-7 nuclear extract on double-stranded Agilent 4x180k PBM; binding buffer, salt, pH and temperature not given; high values mean tight binding; double strand, one strand shown; sequences stand for … in …GCCTAGGGAGATTAGAGTATCGGTCGA.
T1 sequence: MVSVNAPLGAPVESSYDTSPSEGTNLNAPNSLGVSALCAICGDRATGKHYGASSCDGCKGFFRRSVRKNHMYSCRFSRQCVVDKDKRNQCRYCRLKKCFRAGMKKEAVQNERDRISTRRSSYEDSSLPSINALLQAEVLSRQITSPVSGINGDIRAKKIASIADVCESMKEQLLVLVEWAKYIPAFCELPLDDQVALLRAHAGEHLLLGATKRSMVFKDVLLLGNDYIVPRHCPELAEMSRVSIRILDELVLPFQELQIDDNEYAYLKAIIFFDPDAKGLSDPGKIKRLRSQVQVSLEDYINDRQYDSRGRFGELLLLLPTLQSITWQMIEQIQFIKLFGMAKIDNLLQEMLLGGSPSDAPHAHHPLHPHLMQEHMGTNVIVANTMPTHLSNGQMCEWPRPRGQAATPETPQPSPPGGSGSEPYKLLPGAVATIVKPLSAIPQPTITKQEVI
Sequence CTGCTTTGGTTAATCATTAGAGATGTTCAA has a binding signal (log2 normalized intensity) of 0.234. AAGAACAGCTTTGGTATTACATTACAACCA was tested, and the binding signal (log2 normalized intensity) was -1.32. AATTTGTCTTTTCTCCCCCGATAAGGCTGC showed a binding signal (log2 normalized intensity) of 4.01. ACTTTAACCTTTAGATTACTAGGAATTGAT showed a binding signal (log2 normalized intensity) of 1.53. CCACCCTCACAGCTCAATCCAACAAATAGA gave a binding signal (log2 normalized intensity) of -1.39. GAAATATGTAGGTTTGGGGAACTTTGCACT was tested, and the binding signal (log2 normalized intensity) was 4.4. CTTTGGCCAAGGGCAGTGTTTGCCCAGCTT gave a binding signal (log2 normalized intensity) of 0.731. With GAGAGCAAACTTCAAAGAAGCTGTTGGAAA the binding signal (log2 normalized intensity) was -1.37. TGGTCCTTCAAGTGTGACCCTGAACCTACA showed a binding signal (log2 normalized intensity) of 3.06. Sequence GAGTGTGACTGTGGTACTCCAAAGGTCAGT has a binding signal (log2 normalized intensity) of 5.29. With CTTAGCAAATATTTACTGAATGAATGTCCA the binding signal (log2 normalized intensity) was 1.2. TGTGTTCCACAGTCAAGGCCAAAGGTTAAA gave a binding signal (log2 normalized intensity) of 5.96. For GCCCTCCCCCAGAGAGAACAGTCCTACAAA, the binding signal (log2 normalized intensity) was 2.92. CTGCCCAGACACACAATATTATGTTTTGTT was tested, and the binding signal (log2 normalized intensity) was 0.868. For TGATTATTTGTGAAGGCATTATTGGTGAAA, the binding signal (log2 normalized intensity) was 0.974. For AAGCAGAAGGAGGAGGAGGTTCCTGGAACT, the binding signal (log2 normalized intensity) was -1.21. GCACAGAAGGAGAGAGAGGGAGAGTGGCCT showed a binding signal (log2 normalized intensity) of -1.21. Work on CCCTTATCTTCTGGCCACCTCTTCCAGAGT yielded a binding signal (log2 normalized intensity) of 0.238. Work on GACAAAGAGCAAGTGACCCTCAGACACACA yielded a binding signal (log2 normalized intensity) of 1.26. Sequence CAGACACGCTTGACTGGCTCCACCACTTTG has a binding signal (log2 normalized intensity) of -1.4. GGTGATGTGAACCTCGATCCCTGGCTAAGG showed a binding signal (log2 normalized intensity) of 2.38. AAGTGCTTGTTCCCTCCATCCAAGGCCCGC gave a binding signal (log2 normalized intensity) of -1.21. Sequence AAGTGGTTGTAGCAGTTCACACTCCCACCA has a binding signal (log2 normalized intensity) of -0.867. For TGGGCACTGTCCTAGGTGCTGAAGATGCAA, the binding signal (log2 normalized intensity) was -0.883. ACTTGTTTTTTCAGGTGTTGCTCTCTTGCC was tested, and the binding signal (log2 normalized intensity) was 1.63. In the case of GAAAGGGCCTCTCAGGTCAGGGAAGACTGA, the binding signal (log2 normalized intensity) is reported as -1.11. With ATATGAAGCATTGCTTGAGTCACTTGGTTT the binding signal (log2 normalized intensity) was 1.42. TAGATAAGAGCTGAGGAAGTGCTGACCTTT was tested, and the binding signal (log2 normalized intensity) was 6.57. With GCCCTCTCCATGCAGACAGTCCCTCCTCCA the binding signal (log2 normalized intensity) was 1.31. AGCAAGGTCAAAGTGCGTCCTGTGGCAAAG showed a binding signal (log2 normalized intensity) of 4.55. Sequence AGGTGCCTGGGATCGAAAGGACATTGTCCA has a binding signal (log2 normalized intensity) of 2.53. Work on TTATACAGCCTTGGAAGACACAGATGGTGT yielded a binding signal (log2 normalized intensity) of 1.19. With TAACAATTCTTTCTGATAAGAGCATTTTTG the binding signal (log2 normalized intensity) was -0.112. GAGCCCAGCAAACCTATAGGACCAGGCTGT showed a binding signal (log2 normalized intensity) of -1.31. Sequence TGGGGCTTAGATAGCAGTGTGAGTGTCAGA has a binding signal (log2 normalized intensity) of 0.573. In the case of CACAAGTCCTCACAATAATGAGAAACGCCT, the binding signal (log2 normalized intensity) is reported as -1.26. In the case of AACAAAGAGAAAGGGTCAATGTGATCAGGT, the binding signal (log2 normalized intensity) is reported as 1.88. Work on AAAGGTGATCTGCTGGAATGAAGACTCACA yielded a binding signal (log2 normalized intensity) of -1.4. Sequence ACCTTGCAGGCCAGGGAGTGCAGCTGCAGG has a binding signal (log2 normalized intensity) of -1.1. TCCTTCCCTCAGCAACTGCAAGGCTGACCC gave a binding signal (log2 normalized intensity) of 3.92.
